# Assay results from PMC6919601, “Identification of Plasmodium dipeptidyl aminopeptidase allosteric inhibitors by high throughput screening” (PLoS ONE, 2019).
# Screen size: about 110,000 compounds; about 230 (0.21%) showed an effect of 50% or more. The list shows a part of the results.
# Target: DPAP1 (Plasmodium falciparum, UniProt Q8IIJ9)
# Assay: primary screen, percent inhibition; read by cleavage of a fluorogenic dipeptide substrate; higher = more effect of the substance
# Parameters: species or system P. falciparum D10 trophozoite lysates; single well
# 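Also: 30 min substrate incubation versus DMSO and 10 µM JCP410 controls.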
# DPAP1, sequence (Q8IIJ9 whole entry, looked up): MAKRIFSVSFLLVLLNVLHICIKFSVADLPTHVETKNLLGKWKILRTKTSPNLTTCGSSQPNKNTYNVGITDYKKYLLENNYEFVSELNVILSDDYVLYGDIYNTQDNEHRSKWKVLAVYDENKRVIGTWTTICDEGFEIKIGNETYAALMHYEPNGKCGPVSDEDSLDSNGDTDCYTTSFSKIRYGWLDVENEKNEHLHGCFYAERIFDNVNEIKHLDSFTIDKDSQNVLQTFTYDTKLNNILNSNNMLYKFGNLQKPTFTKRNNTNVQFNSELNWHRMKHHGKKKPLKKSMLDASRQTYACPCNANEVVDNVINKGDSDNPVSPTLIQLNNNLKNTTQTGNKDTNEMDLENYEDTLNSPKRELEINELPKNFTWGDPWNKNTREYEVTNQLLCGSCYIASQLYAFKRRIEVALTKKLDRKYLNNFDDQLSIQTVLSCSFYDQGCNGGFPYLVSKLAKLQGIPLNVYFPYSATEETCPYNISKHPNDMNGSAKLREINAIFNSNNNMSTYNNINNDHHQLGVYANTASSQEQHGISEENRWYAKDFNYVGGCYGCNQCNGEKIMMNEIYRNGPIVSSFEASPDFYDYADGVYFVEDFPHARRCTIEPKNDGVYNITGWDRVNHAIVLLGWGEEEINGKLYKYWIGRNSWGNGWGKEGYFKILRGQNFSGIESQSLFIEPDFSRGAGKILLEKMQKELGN
row,Structure (SMILES),% Inhibition @ 10 uM
1,Cc1cccc2c1-c1sc(C(=O)O)cc1CO2,-0.631%
2,Cc1cccc(C)c1Nc1c(C)cc([N+](=O)[O-])cc1C,1.13%
3,CCCn1c2ccccc2c2cnn(CC(=O)N(Cc3ccco3)CC3CCCO3)c(=O)c21 (centres unmarked),5.27%
4,CC(C)CN1C(=O)c2ccccc2C(C(=O)N2CCCC2)C1c1cccs1 (centres unmarked),-1.11%
5,O=C(OCn1cncn1)c1ccc(Cl)cc1Cl,1.13%
6,Cc1ccc(S(=O)(=O)n2cc(CO)c3ccccc32)cc1,-1.22%
7,CC1=C(C(=O)Nc2ccccc2C)C(c2ccccc2)n2c(s/c(=C/c3cn(C)nc3C)c2=O)=N1 (centres unmarked),0.431%
8,O=C(Cn1ncc2c(=O)oc3ccccc3c21)NCCCN1CCCC1=O,2.39%
9,O=C1CSc2cc3c(cc2N1)OCC(=O)N3Cc1ccc(Cl)cc1,5.43%
10,Cc1ccc(OCC(=O)NC23CC4CC(CC(C4)C2)C3)c(Br)c1,-1.82%
11,COc1cc(CN2CCN(C(=O)CC(C)C)CC2)cc(OC)c1,0.324%
12,COc1c(Cl)cc(-c2nc3cc(N)ccc3o2)cc1Cl,13.2%
13,CC(C)C[C@H](NC(=O)c1ccc(OCc2ccccc2)cc1)C(=O)NCC#N,17%
14,CC(NC(=O)CSc1nnc(-c2ccco2)n1-c1ccccc1)c1ccccc1 (centres unmarked),1.76%
15,Cc1cc(C(F)(F)F)nn1CC(=O)Nc1sc2c(c1C#N)CCC(C(C)(C)C)C2 (centres unmarked),3.64%
16,Cc1cc(C)n(CC(O)Cn2c(C)c(C)c3ccccc32)n1 (centres unmarked),11.8%
17,O=C(CCc1nnc2n(CCc3ccccc3)c(=O)c3ccccc3n12)NCc1ccc2c(c1)OCO2,-0.692%
18,O=C(NCCCN1CCOCC1)C1CCCN(S(=O)(=O)N2CCC3(CC2)OCCO3)C1 (centres unmarked),0.0525%
19,c1cc2c(cc1NC1CCCCC1)OCO2,-7.06%
20,O=C(Nc1ccc(F)c(F)c1)c1ccc(Cl)cc1,-3.35%
21,COc1ccccc1C(=O)N/C(=C\c1cn(S(=O)(=O)N(C)C)c2ccccc12)C(=O)NCCO,4.8%
22,CCOc1cccc2c1OC(c1cccc(Cl)c1)N1N=C(c3cccnc3)CC21 (centres unmarked),3.47%
23,OC1(c2ccc(Br)cc2)CCN(CCCc2ccccc2)CC1,-5.35%
24,Cc1ccc(-c2nn3c(C)nnc3c3ccccc23)cc1S(=O)(=O)NCc1cccnc1,-0.222%
25,CC(C)N(Cc1ccccc1)C(=O)c1ccc([N+](=O)[O-])cc1Cl,3.47%
26,COc1ccc(CNC(=O)Cn2ccc3cc(S(=O)(=O)N4CCCC4)ccc32)cc1,-4.85%

row,Structure (SMILES),% Inhibition @ 10 uM
1,Cc1cccc(-c2nc(CS(=O)CC(=O)NC(C)c3ccccc3)c(C)o2)c1 (centres unmarked),3.99%
2,COc1ccc2nnc(-c3ccccc3)n2n1,1.4%
3,Cc1ccc(O)c(C(CC(=O)NCc2ccco2)c2ccccc2)c1 (centres unmarked),-4.69%
4,COc1cc(C)c(CNC23CC4CC(CC(C4)C2)C3)cc1C,-5.59%
5,COc1ccc(OC)c([N+]2=C3CCCCCN3C(O)(c3ccc(C)cc3)C2)c1 (centres unmarked),4.46%
6,Cc1nc2cc(NC(=O)N3CCSCC3)ccc2n1C,1.78%
7,O=C1NC(=O)N(Cc2ccco2)C(=O)/C1=C/c1c[nH]c2ccccc12,27.4%
8,COc1cc(-c2nc3c4ccccc4c4ccccc4c3[nH]2)ccc1O,-3.28%
9,Cc1cc(C)c2nc(N3CCC(C(=O)N4CCc5ccccc5C4)CC3)sc2c1,-1.58%
10,Cc1cccc(CN2CCN(c3ccccn3)CC2)c1,-5.81%
11,COc1ccc(C2=NN(c3nc(-c4cc(C)ccc4C)cs3)C(c3ccc(Cl)cc3Cl)C2)cc1F (centres unmarked),-2.5%
12,CCCCOC(=O)c1ccc(N2CCOCC2)cc1,-0.828%
13,Sc1nc(-c2ccccc2)cn1-c1ccccc1,37.1%
14,COc1ccccc1OCC(=O)Nc1sc(C)c(C)c1C(N)=O,-3.41%
15,COc1ccc(NS(=O)(=O)c2cccc(C(=O)NCc3ccccc3)c2)cc1,-0.0217%
16,O=C(O)C1CCCCC1C(=O)N1CCCC1 (centres unmarked),-2.03%
17,CCCCCOc1ccc2oc(=O)c3c(c2c1)CCCN3C(=O)CN1CCN(CC)CC1,10.4%
18,Cc1ccc2c(c1)NC(c1cccs1)C1=C(O)CC(C)(C)CC1=N2 (centres unmarked),-4.32%
19,CS(=O)(=O)N(CC(=O)N1CCCCCC1)c1cccc2ccccc12,2.79%
20,COc1cc(CN2CC(C)OC(C)C2)cc(OC)c1O (centres unmarked),-2.54%
21,COc1ccc(OC)c(C2C3=C(O)CC(C)(C)CC3=Nc3ccccc3N2C(=O)C(F)(F)F)c1 (centres unmarked),-1.06%
22,Cc1c2c(=O)n(-c3nc4ccccc4s3)[nH]c2cc(=O)n1Cc1ccccc1,-1.98%
23,Cc1ccc(-n2nc(C)c3c(C(=O)NCCc4c(C)noc4C)cc(C)nc32)cc1,0.44%
24,CN(C)CCCN(CCCN(C)C)Cc1ccc(Cl)cc1Cl,-4.14%
25,CCCNCC1=C(C(=O)OCC)C(c2ccccc2)NC(=O)N1 (centres unmarked),-6.91%
26,Cn1c(=O)c2c(nc(SCC(=O)NC(C)(C)C)n2Cc2cccc(Cl)c2)n(C)c1=O,0.674%

row,Structure (SMILES),% Inhibition @ 10 uM
1,CC1CCCCC1NS(=O)(=O)c1ccc2nc(O)ccc2c1 (centres unmarked),-7.34%
2,Cc1ccc(Cl)c2c1C(=O)c1ccccc1C2=O,3.06%
3,COC(=O)C1=CN(C(C)C)C=C(C(=O)OC)C1c1ccc(OC)cc1OC,4.99%
4,CC(C)(C)C1CCc2c(sc(NC(=O)C3CCCO3)c2C#N)C1 (centres unmarked),0.76%
5,CC(C)c1cc2cc3ccc(=O)oc3cc2o1,0.467%
6,O=C(Nc1ccc(F)cc1)c1cccc(S(=O)(=O)Nc2ccc(F)cc2)c1,-1.02%
7,CCOC(=O)N1CCN(C(=O)CC2c3ccccc3Oc3ccccc32)CC1,0.343%
8,CCn1cc(/C=C(\NC(=O)c2ccco2)C(=O)NCc2ccccc2)c2ccccc21,-0.235%
9,O=C(/C=C/c1ccccc1)Nc1ccccc1Br,1.63%
10,Clc1ccccc1N1CCN(CC2CC=CCC2)CC1 (centres unmarked),-0.603%
11,OCCCCCNc1ncnc2sc3c(c12)CCCC3,1.57%
12,O=S(=O)(c1ccc(F)cc1)N1CCN(c2cccc(Cl)c2)CC1,0.135%
13,CCCN1Cc2cccc(C(=O)O)c2C1=O,-1.03%
14,Cc1cc(Br)ccc1OCC(=O)Nc1ccc(S(=O)(=O)N2CCOCC2)cc1,-4.52%
15,CCCOc1ccc(CNC(=O)CCCn2sc3ccccc3c2=O)cc1,8.44%
16,Cc1ccc(S(=O)(=O)/N=C(\Nc2cc(C)on2)c2ccc(Cl)cc2)cc1,-1.51%
17,C=CCn1c(SCC(=O)NCc2ccc3c(c2)OCO3)nnc1-c1cccnc1,-8.98%
18,CC(=O)N1CCC(N2CCN(c3ccc(F)cc3)CC2)CC1,-5.31%
19,CCC(C(=O)Nc1ccc(CC(=O)O)cc1)c1ccccc1 (centres unmarked),2.44%
20,CC(C)CCNC(=O)c1cc2ccc3cccnc3c2[nH]1,4.27%
21,O=C(NCCN1CCCCCC1)c1ccc2nc(N3CCCCC3)sc2c1,-0.637%
22,CCOc1ccc(CNc2nc3ccc(C)cc3n3cnnc23)cc1OC,-2.42%
23,CCC(C)NC(=O)Cn1cc(S(=O)(=O)N2CCCC2)c(S(=O)(=O)N2CCCC2)c1 (centres unmarked),3.68%
24,CCc1ccc(NC(=O)C(CC)Oc2ccccc2)cc1 (centres unmarked),1.57%
25,CCOC(=O)NS(=O)(=O)c1ccc(CCNC(=O)c2cc(C)on2)cc1,3.77%
26,Cc1ccc(C2=N/C(=C\c3c(C)nn(-c4ccccc4)c3Cl)C(=O)O2)cc1,-2.86%

row,Structure (SMILES),% Inhibition @ 10 uM
1,CCCCN(CC)C(=O)Cn1c(=O)sc2ccccc21,-1.48%
2,COCCCNC(=O)c1c2c(nn1C)-c1ccccc1SC2,-3.95%
3,CC(C)Oc1ccc(CNC(=O)C2(c3ccccc3)CCOCC2)cc1,-3.47%
4,CCc1c(CN2CCN(Cc3ccc4c(c3)OCO4)CC2)csc1C,-2.73%
5,Fc1ccc(-c2noc3ncnc(NCc4ccccc4Cl)c23)cc1,-7.13%
6,O=C1c2ccccc2C(=O)C1c1ccc(O)cc1,0.00178%
7,CCCCOc1ccc(/C=c2\sc3nc(C4COc5ccccc5O4)nn3c2=O)cc1OC (centres unmarked),-5.2%
8,O=C(NCc1ccco1)c1cnn2c1NC(c1ccc(Br)cc1)CC2C(F)(F)F (centres unmarked),4.33%
9,Cc1nc2nc(NC(=O)Cc3ccccc3)nn2c(O)c1Cc1ccccc1,-4.91%
10,Cc1sc(NC(=O)Cc2ccc(Cl)cc2)c(C#N)c1C,3.05%
11,O=C(O)c1cc(C2CC2)nc2ccccc12,0.878%
12,Oc1nc(-c2ccccc2)nc2c1C1(CCCC1)Cc1ccccc1-2,1.44%
13,CCOC(=O)N1CCC(NC2=NS(=O)(=O)C(c3ccc(C)cc3)=C2C)CC1,5.42%
14,COc1ccc(-c2cn3c4c(=O)n(C)c(=O)n(C)c4nc3n2CCCO)cc1,-2.24%
15,CN1CCN(Cc2cccc3ccccc23)CC1,-3.65%
16,CCC(C)NC(=O)CN1N=C(c2ccc(C)cc2)CCC1=O (centres unmarked),0.514%
17,COCCn1c(=N)c(C(N)=O)cc2c(=O)n3cc(C)ccc3nc21,0.279%
18,CC(C)NS(=O)(=O)c1ccc(OCC(=O)NCc2ccncc2)cc1,-10%
19,c1ccc(NCc2ccc3c(c2)OCO3)cc1,0.177%
20,CCOc1ccc(NC(=O)CSC2=C(C#N)C(c3cccs3)CC(=O)N2)cc1 (centres unmarked),-6.36%
21,CN1C(=O)/C(=C/c2ccc(O)c(O)c2)S/C1=N/c1ccc(Cl)cc1,-0.545%
22,CCCN1C(=O)c2n[nH]c(C)c2C1c1ccc(O)cc1 (centres unmarked),-4.67%
23,CCCCOc1ccc(CC(=O)O)cc1,4.12%
